# Measurements reported in PubChem BioAssay AID504332 (National Center for Advancing Translational Sciences (NCATS), 2011).
# Screen size: about 350,000 compounds; about 31,000 (8.9%) were called active. The shares of active, inactive and inconclusive entries below differ from those in the screen. Calls follow the shape of the dose curve; as a rule, active = well fitted inhibition curve with a large enough effect; inconclusive = small, poorly fitted or top-dose-only effect; inactive = no such curve, though single readings can be large or run the other way. A potency beside an inconclusive call is a rough fit, not a confirmed value.
# Biological target: Histone-lysine N-methyltransferase EHMT2 (Homo sapiens) (UniProt Q96KQ7)
# Assay: qHTS Assay for Inhibitors of Histone Lysine Methyltransferase G9a; also: nearly all actives have a fitted effect of over 75% in size
# Settings: G9a H3K9 monomethylation, AlphaScreen, 2 h; activity, negative = inhibition: at 59 µM (top of the series) unless noted
# Procedure, shortened: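 G9a (20 nM) was preincubated 15 min with compound, then reacted 2 h at room temperature with 500 nM biotin-H3K9 peptide and 20 µM SAM. Monomethyl-H3K9 detected by AlphaScreen using anti-H3K9me1 antibody.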
# % is scaled to controls: 0 for no effect and ±100 for the full control effect; potency is read from the fitted curve at half-maximal effect; tags tell the direction and shape of the fitted curve.
# Chain of UniProt Q96KQ7 (Q96KQ7 whole entry, looked up): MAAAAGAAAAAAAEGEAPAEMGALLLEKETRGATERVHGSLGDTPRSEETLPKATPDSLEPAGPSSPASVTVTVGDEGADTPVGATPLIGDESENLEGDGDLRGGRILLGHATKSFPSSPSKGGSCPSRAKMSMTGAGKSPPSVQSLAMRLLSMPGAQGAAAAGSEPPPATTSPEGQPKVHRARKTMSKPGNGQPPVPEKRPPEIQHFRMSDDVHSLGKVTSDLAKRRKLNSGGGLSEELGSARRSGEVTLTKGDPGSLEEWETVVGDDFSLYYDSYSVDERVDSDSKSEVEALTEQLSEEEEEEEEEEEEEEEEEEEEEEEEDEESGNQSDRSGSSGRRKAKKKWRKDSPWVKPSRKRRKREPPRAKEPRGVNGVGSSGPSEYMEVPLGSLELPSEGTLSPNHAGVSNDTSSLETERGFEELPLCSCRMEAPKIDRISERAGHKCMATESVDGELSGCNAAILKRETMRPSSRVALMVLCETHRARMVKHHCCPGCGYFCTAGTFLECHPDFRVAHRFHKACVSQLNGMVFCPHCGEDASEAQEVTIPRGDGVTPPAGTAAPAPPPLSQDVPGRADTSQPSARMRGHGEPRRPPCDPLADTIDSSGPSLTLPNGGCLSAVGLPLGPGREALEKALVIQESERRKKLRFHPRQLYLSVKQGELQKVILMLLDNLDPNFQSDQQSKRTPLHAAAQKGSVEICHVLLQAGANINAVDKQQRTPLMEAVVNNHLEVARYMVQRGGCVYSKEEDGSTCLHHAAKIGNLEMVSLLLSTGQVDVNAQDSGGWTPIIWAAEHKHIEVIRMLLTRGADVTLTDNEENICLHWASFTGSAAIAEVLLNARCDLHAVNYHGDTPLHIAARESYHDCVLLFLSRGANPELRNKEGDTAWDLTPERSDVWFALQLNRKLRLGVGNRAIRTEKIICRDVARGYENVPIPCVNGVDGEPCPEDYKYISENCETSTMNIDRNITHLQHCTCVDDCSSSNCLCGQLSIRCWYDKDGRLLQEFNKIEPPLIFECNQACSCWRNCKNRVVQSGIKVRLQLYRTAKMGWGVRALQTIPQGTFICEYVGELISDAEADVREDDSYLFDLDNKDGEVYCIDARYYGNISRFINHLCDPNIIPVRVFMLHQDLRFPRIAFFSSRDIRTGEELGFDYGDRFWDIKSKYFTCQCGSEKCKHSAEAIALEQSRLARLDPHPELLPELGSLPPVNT
SMILES,Potency,"activity, negative = inhibition"
C=CCc1ccc(OCCCCNC(C)CC)c(OC)c1 (configuration not stated),active: 14.1 µM,
CCOC(=O)c1c(C)[nH]c(C)c1S(=O)(=O)N1CCC(c2ccccc2)C1 (configuration not stated),"inconclusive: 44.7 µM [inhibitor, partial curve]",
CCN(C(=S)Nc1cccnc1)c1cccc2ccccc12,"inconclusive: 35.5 µM [inhibitor, partial curve, poor fit]",
Nc1ccccc1C(=O)/C=C/c1ccc2c(c1)OCO2,active: 39.8 µM,
CCCCN1C(=O)C(O)=C(C(C)=O)C1c1ccccc1 (configuration not stated),active: 50.1 µM,
CCOc1ccc2c(c1)-c1c(ssc1=S)C(C)(C)N2C(=O)CSC1=NCCS1,active: 8.91 µM,
Fc1ccc(NC(=S)N2CCn3cccc3C2c2cccnc2)cc1 (configuration not stated),"inconclusive: 56.2 µM [inhibitor, partial curve, poor fit]",
CCOC(=O)c1c(NC(=O)CSc2cn(CCNC(=O)c3ccccc3F)c3ccccc23)sc2c1CCC2,"inconclusive: 3.55 µM [inhibitor, partial curve, poor fit]",
COc1ccc(Cl)cc1NC(=O)CN(C)C(=O)C1CCN(C(=O)Nc2ccccc2)CC1,inactive,
COc1ccc(S(=O)(=O)N2CCOCC2)cc1NC(=O)CSc1nnc(N)s1,active: 44.7 µM,
COc1ccc(/C=N/NC(=O)c2cc(-c3cccn3C)n[nH]2)cc1OC,active: 79.4 µM,
O=C(CN(C(=O)CCC(=O)Nc1nccs1)c1ccc(F)cc1)NCc1ccccc1,"inconclusive: 79.4 µM [inhibitor, single point]",
Cc1cccc(-n2c(C)cc(C(=S)N3CCOCC3)c2C)c1C,"inconclusive: 89.1 µM [inhibitor, partial curve, poor fit]",
COc1ccc(NCC(O)COc2ccc(C(C)(C)C)cc2)cc1 (configuration not stated),"inconclusive: 31.6 µM [inhibitor, partial curve]",
COc1ccc(N2CCN(C(=O)c3cccc(N4C(=O)C5CC=CC(C)C5C4=O)c3)CC2)cc1 (configuration not stated),"inconclusive: 6.31 µM [inhibitor, partial curve]",
CC(=O)NC1=C(Nc2ccc(N(C)C)cc2)C(=O)c2ccccc2C1=O,active: 31.6 µM,
Cc1ccc(Cl)cc1N1CCN(S(=O)(=O)c2ccc3[nH]c4c(c3c2)CCCCC4)CC1,"inconclusive: 25.1 µM [inhibitor, partial curve, poor fit]",
CCOc1cc(/C=N\NC(=O)OC)ccc1OC(=O)c1ccco1,inactive,
CCCCn1c(N)c(N(CC(C)C)C(=O)CN2C(=O)C3CCCCC3C2=O)c(=O)[nH]c1=O (configuration not stated),"inconclusive: 44.7 µM [inhibitor, partial curve, poor fit]",
Cc1c(C(=O)N2CCCCC2C)sc2ncnc(N3CCc4ccccc4C3)c12 (configuration not stated),inactive,
COCCn1cnnc1SCC(=O)Nc1ccccc1C(=O)Nc1ccc2c(c1)OCO2,"inconclusive: 3.55 µM [inhibitor, partial curve, poor fit]",
COCCn1c(-c2ccccc2F)n[nH]c1=S,"inconclusive: 4.47 µM [inhibitor, single point]",
CC=C1C2C=C(C)CC1(N)c1ccc(=O)[nH]c1C2 (configuration not stated),inactive,
COc1cccc(-n2nc(C#N)c(Cl)cc2=O)c1,active: 50.1 µM,

SMILES,Potency,"activity, negative = inhibition"
COc1ccc(C(=O)NCN2CCN(c3ccccc3)CC2)cc1OC,,inactive: -0.0885% [at 12.7 µM]
COc1cccc(OC)c1OCCCCN1CCC(Cc2ccccc2)CC1,active: 12.6 µM,
COc1cc(C(=O)Oc2cccnc2)cc(OC)c1OC,"inconclusive: 44.7 µM [inhibitor, partial curve, poor fit]",
CCOc1ccc(OCC)c(NC(=O)CN2CCN(c3cccc(C)c3)C(C)C2)c1 (configuration not stated),"inconclusive: 3.98 µM [inhibitor, single point]",
CCOC(=O)c1c(C)n(C)c2ccc(OC)c(NC(=O)CCN3CCC(Cc4ccccc4)CC3)c12,inactive,
N/C(COc1ccc(C(=O)O)cc1)=N\O,active: 50.1 µM,
COc1ccccc1CNC(=O)c1ccncc1,"inconclusive: 28.2 µM [inhibitor, single point]",
CC1CCCC(NC(=O)CSc2nnc(N)s2)C1C (configuration not stated),,inactive: -29.9% [at 0.0925 µM]
CCN(C(=O)CSc1nncs1)c1c(N)n(Cc2ccccc2)c(=O)[nH]c1=O,active: 14.1 µM,
Cc1csc(NC(=O)C2CC(=O)N(c3ccc(C)c(C)c3)C2)n1 (configuration not stated),"inconclusive: 89.1 µM [inhibitor, single point]",
CCc1nnc(NS(=O)(=O)c2ccc(NC(=O)c3cc(Cl)ccc3Cl)cc2)s1,"inconclusive: 35.5 µM [inhibitor, single point]",
O=C1CN(C(=O)CSc2nncn2-c2ccccc2)c2ccccc2N1,"inconclusive: 39.8 µM [inhibitor, single point]",
CCc1nnc(NC(=O)CSc2nnc(-c3cc4ccccc4cc3O)n2CCOC)s1,"inconclusive: 89.1 µM [inhibitor, single point]",
COCCN(CCOC)C(=O)c1cc2c(=O)n3ccccc3nc2s1,"inconclusive: 50.1 µM [inhibitor, partial curve]",
Cc1ccc([N+](=O)[O-])cc1NC(=O)CN1CCC(C)CC1,"inconclusive: 22.4 µM [inhibitor, partial curve, poor fit]",
COc1ccc(OC)c(C(=O)CSc2nnc(Cc3cccs3)n2CCc2ccccc2)c1,,inconclusive: -65.9% [inhibitor]
Cc1ccc(C)c(NC(=O)CCN2C(=O)c3ccccc3Sc3ncccc32)c1,inactive,
Cc1ccc(-c2nn(C)c(=O)c3ccccc23)cc1S(=O)(=O)NCCN(C)C,"inconclusive: 39.8 µM [inhibitor, partial curve, poor fit]",
Cc1cc(C)nc(SCc2ccc(C(=O)N/N=C3\CCCC(=O)C3)cc2)n1,inactive,
Cc1ccc(Cl)c2c1N[C@@H](c1ccc(C(=O)O)cc1)[C@H]1CC=C[C@@H]21,"inconclusive: 14.1 µM [inhibitor, partial curve]",
CN(C)C=Nc1c(I)cc(I)c(CCC(=O)O)c1I,"inconclusive: 1 µM [inhibitor, partial curve, poor fit]",
CCCN1C(=O)/C(=N\OCC(=O)NCC(F)(F)F)c2ccccc21,inactive,
C=CCN1C(=O)N/C(=C/c2ccc(N3CCOCC3)o2)C1=O,active: 31.6 µM,
CC(=O)N1CCC2(CCN(Cc3ccccc3)CC2)CC1,,inactive: 1.84% [at 12.7 µM]

SMILES,Potency,"activity, negative = inhibition"
COc1cccc(N2CCN(S(=O)(=O)c3cc(Br)cc4c3N(C(=O)C3CC3)CC4)CC2)c1,active: 7.94 µM,
Cc1cc(NS(=O)(=O)c2ccc(NC(=O)c3cnc4scc(C)n4c3=O)cc2)nc(C)n1,"inconclusive: 79.4 µM [inhibitor, single point]",
CCCOc1ccc(N2C(=O)C3ON(c4ccccc4)C(c4ccc(O)c(OC)c4)C3C2=O)cc1 (configuration not stated),active: 50.1 µM,
COc1ccc(N2CCN(C(=O)CN(c3cccc(OC)c3)S(=O)(=O)c3ccccc3)CC2)cc1,active: 8.91 µM,
CC(=O)Nc1cccc(NC(=O)C(C)N2c3cccc4cccc(c34)S2(=O)=O)c1 (configuration not stated),"inconclusive: 89.1 µM [inhibitor, partial curve, poor fit]",
COc1ccc(C2=NS(=O)(=O)N(C)C(C(=O)Nc3cc(C)ccc3O)=C2)cc1OC,"inconclusive: 8.91 µM [inhibitor, partial curve, poor fit]",
CCc1cccc(C)c1NC(=O)C1CCCN1C(=O)NCc1ccccc1 (configuration not stated),inactive,
CNC(=S)N1CCc2cc(OC)c(OC)cc2C1COc1ccc(F)cc1 (configuration not stated),"inconclusive: 89.1 µM [inhibitor, partial curve, poor fit]",
O=C(CSc1nc(-c2ccco2)cc(C(F)(F)F)n1)N1CCc2ccccc2C1,active: 12.6 µM,
Cc1ccc(-c2n[nH]c(=S)c3ccccc23)cc1S(=O)(=O)NCC1CCCO1 (configuration not stated),active: 22.4 µM,
COc1ccc2c(CCNC(N)=S)c[nH]c2c1,inactive,
CCCCNC(=O)N(C)c1nc2ccccc2s1,active: 50.1 µM,
S=c1[nH]nc(-c2c[nH]c3ccccc23)o1,"inconclusive: 1 µM [inhibitor, single point]",
Cc1nc(C)c(-c2csc(Nc3ccc(F)cc3)n2)s1,active: 20 µM,
CCOC(=O)N1CCN(C(=O)CCl)CC1,"inconclusive: 79.4 µM [inhibitor, partial curve, poor fit]",
Cc1ccnc(NC(=S)NC(=O)/C=C/c2ccco2)c1,"inconclusive: 11.2 µM [inhibitor, full curve, poor fit]",
COC(=O)c1c(NC(=O)COC(=O)Cn2cnc3ccccc32)sc(C)c1C,"inconclusive: 89.1 µM [inhibitor, partial curve, poor fit]",
O=C(O)c1ccccc1-c1cn2cc(Cl)ccc2n1,inactive,
C=CCn1c(=O)c2c(nc(Br)n2Cc2ccccc2Cl)n(C)c1=O,inactive,
COC(=O)c1ccc(CSc2nc3c(cnn3-c3ccccc3)c(=O)[nH]2)o1,"inconclusive: 39.8 µM [inhibitor, single point]",
COC(=O)/C(=N/Nc1ccccc1)N1CCCc2ccccc21,active: 44.7 µM,
O=C(CSc1ccccc1)Nc1ccc(N2CCOCC2)cc1,"inconclusive: 79.4 µM [inhibitor, single point]",
O=C(O)[C@H]1CCCN1,inactive,
COc1ccc(C2CC(c3ccc(Cl)cc3)=NN2C(=O)c2cccc([N+](=O)[O-])c2)cc1 (configuration not stated),"inconclusive: 17.8 µM [inhibitor, single point]",
